# Results: publication doi:10.1101/2019.12.19.883264 (bioRxiv, 2019)
# B1: His-tagged NPM1 S48A, recombinant (natural protein)
# chain: not shown
# Molecular target: the molecule itself
# Test: cross-linking
protein,measurement,value
B1,binding result,binds
